# Test results: publication PMC4336329 (PLoS ONE, 2015)
# In all, about 310,000 compounds went through this assay and about 14,000 (4.5%) showed an effect of 50% or more. The effect is printed as a negative number. The list shows a part of the results.
# Target: human ether-à-go-go-related gene (hERG) potassium channel (human, UniProt Q12809)
# Experiment: primary screen, population patch clamp on CHO cells stably expressing hERG
# 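Note: peak tail current of the secondary pulse compared with the same well before compound.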
# Sequence of human ether-à-go-go-related gene (hERG) potassium channel (Q12809 whole entry, looked up): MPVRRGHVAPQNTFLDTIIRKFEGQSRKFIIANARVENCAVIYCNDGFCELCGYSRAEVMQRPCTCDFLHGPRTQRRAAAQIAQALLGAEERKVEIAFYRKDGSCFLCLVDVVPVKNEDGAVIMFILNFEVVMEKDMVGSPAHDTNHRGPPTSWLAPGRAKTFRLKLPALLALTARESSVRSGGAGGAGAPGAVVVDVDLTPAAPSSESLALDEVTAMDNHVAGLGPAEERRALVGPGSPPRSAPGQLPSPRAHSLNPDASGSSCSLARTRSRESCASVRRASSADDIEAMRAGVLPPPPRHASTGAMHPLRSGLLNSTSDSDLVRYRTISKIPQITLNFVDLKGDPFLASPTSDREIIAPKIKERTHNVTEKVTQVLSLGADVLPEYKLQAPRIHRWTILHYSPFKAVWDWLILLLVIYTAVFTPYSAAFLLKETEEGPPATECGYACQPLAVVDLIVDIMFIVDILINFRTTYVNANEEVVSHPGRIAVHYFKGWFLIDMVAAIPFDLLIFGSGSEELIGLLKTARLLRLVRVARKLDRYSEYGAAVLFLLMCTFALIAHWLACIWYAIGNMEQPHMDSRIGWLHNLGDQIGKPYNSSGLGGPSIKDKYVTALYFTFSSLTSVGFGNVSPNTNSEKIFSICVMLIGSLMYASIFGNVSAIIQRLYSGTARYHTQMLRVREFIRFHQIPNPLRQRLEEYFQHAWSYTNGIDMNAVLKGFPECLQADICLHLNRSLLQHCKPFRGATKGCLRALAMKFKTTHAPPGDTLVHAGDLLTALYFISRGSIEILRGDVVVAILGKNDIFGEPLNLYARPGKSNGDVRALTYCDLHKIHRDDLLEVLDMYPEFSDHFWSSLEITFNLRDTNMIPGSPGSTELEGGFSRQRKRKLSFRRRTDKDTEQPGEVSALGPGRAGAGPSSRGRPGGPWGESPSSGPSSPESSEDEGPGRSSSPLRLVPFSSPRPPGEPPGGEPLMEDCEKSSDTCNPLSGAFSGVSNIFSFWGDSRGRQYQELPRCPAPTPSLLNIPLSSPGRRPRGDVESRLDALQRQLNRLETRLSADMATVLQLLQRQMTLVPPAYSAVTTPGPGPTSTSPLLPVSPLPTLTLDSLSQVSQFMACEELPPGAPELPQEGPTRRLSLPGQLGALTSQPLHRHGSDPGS
row,Compound,"hERG current change (%, negative = inhibition) at 10uM [%]"
1,CCn1c(C)[n+](CCCS(=O)(=O)[O-])c2cc(Cl)c(Cl)cc21,23.3
2,Cc1ccc(CSCC(=O)Nc2ccc(N3CCOCC3)cc2N2CCOCC2)cc1,-4.65
3,O=C(COc1ccc(S(=O)(=O)NC2CCCCC2)cc1Cl)NCc1ccc2c(c1)OCO2,7.69
4,O=C(CSc1ncnc2c1oc1ccccc12)N1CCN(c2ccccc2)CC1,-4.27
5,CN(C)c1ccc(/C=C2\NC(=S)N(Cc3ccccc3)C2=O)cc1,-0.668
6,COc1cccc(NC(=O)C2CCCN2S(=O)(=O)c2ccc3c(c2)n(C)c(=O)c(=O)n3C)c1 (stereo not shown),5.57
7,CC/C(=N\NC(=O)c1ccc2c(c1)OCO2)c1ccccc1,14.8
8,COc1ccc(NC(=O)CSCc2cc(=O)n3nc(C4CC4)sc3n2)cc1,7.96
9,COc1cc(OC)cc(C(=O)N2CCN(Cc3ccccc3[N+](=O)[O-])CC2)c1.O=C(O)C(=O)O,-46.5
10,CN(Cc1ccc(Cl)cc1Cl)C(=O)CNC(=O)c1ccc2c(c1)OCO2,-26.3
11,O=C1CNC(=O)/C1=C/c1ccc(O)cc1,18.6
12,CCn1c(=O)c2cc(C(=O)Nc3ccccc3OC)sc2c2ccccc21,7.74
13,CC(C)COC(=O)c1ccc(NC(=O)C2C3CCC(C3)C2C(=O)O)cc1 (stereo not shown),7.41
14,COc1ccc(C(=O)N2CCN(C(=O)C3COc4ccccc4O3)CC2)cc1 (stereo not shown),-26.7
15,O=C(O)COc1ccc(NC(=O)c2ccco2)cc1,-4.51
16,CSCCC(NC(=O)c1ccco1)C(=O)N1CCCC(C(F)(F)F)C1 (stereo not shown),-14.9
17,COc1ccc(CCC(=O)OC(C)C(=O)c2ccc(C)cc2)cc1 (stereo not shown),0.769
18,CCOC(=O)Cc1ccc(NCc2ccc(Cl)cc2)cc1.Cl,12.7
19,COc1ccc(N(CC(=O)Nc2cccc(C(=O)O)c2)S(=O)(=O)c2c(C)noc2C)cc1,-0.655
20,COc1cc(NC(=O)COC(=O)/C=C/c2c(C)nn(-c3ccc(F)cc3)c2Cl)cc(OC)c1,8.33
21,CCOC(=O)CN1NC2(CCCC(C)C2)NC1=S (stereo not shown),16.8
22,Cc1ccc(NC(=S)NCCN(C2CCCCC2)C2CCCC2)cc1,-72
23,C=CCSc1ncccc1C(=O)NCCc1ccccc1,5.37
24,COc1ccc(O)c(CN2CCCC(C(=O)c3sccc3C)C2)c1 (stereo not shown),9.89
25,O=C1CN=C(c2ccc(Br)cc2)c2oc3ccccc3c2N1,6.88
26,CCOC(=O)c1cnc2ccc(OCC)cc2c1N(C)Cc1ccccc1,-11.9
27,Cl.O=C(CCCN1CCC(O)(c2cccc(C(F)(F)F)c2)CC1)c1ccc(F)cc1,-75.6
28,CCN1CCN(CCCNC(=O)Cn2cc3c(n2)CCCC3)CC1,16.4

row,Compound,"hERG current change (%, negative = inhibition) at 10uM [%]"
1,COc1ccc2nc(Nc3nc(C)c(C(C)=O)s3)sc2c1,7.16
2,CCOC(=O)CSc1cc(CS(=O)c2ccc(Cl)cc2)nc(-c2ccccc2)n1 (stereo not shown),-49.3
3,COc1ccccc1NC(=S)N(Cc1ccc(C(=O)O)cc1)Cc1ccc(OC)c(OC)c1,6.54
4,O=C(CN1C(=O)COc2ccccc21)N1CCCc2ccccc21,-7.54
5,CCCCCCC(CC(=O)NCc1cccnc1)CC(=O)NCc1cccnc1,-3.91
6,COc1ccc(/C=C/C(=O)NC(=S)NN2CCCCC2c2cccnc2)cc1 (stereo not shown),-26.9
7,CCOC(=O)N1CCN(C(=O)C(=O)c2cn(CC(=O)N3CCCCCC3)c3ccccc23)CC1,-12.9
8,Cc1ccc(C(=O)NCC(=O)OCC(=O)N2CCCc3ccccc32)cc1,-22.6
9,O=C(Cn1[nH]c(=O)c2ccccc2c1=O)N1CCN(S(=O)(=O)c2ccc(Cl)cc2)CC1,-8.89
10,COc1ccc(CN(Cc2ccc(OC)cc2)S(=O)(=O)c2ccc(-n3cnnn3)c(C)c2)cc1,-2.08
11,CCOC(=O)c1sc(NC(=O)CSc2ncccn2)nc1C,-6.81
12,COc1ccc(NC(=O)C2CCN(S(=O)(=O)c3c(C)noc3C)CC2)cc1,17.3
13,CCOC(=O)c1ccccc1NC1c2ccccc2C(=O)N1C1CCN(C(=O)OCC)CC1 (stereo not shown),-56.4
14,CCOc1ccccc1/C=N/Nc1nc(C)cc(=O)[nH]1,0.476
15,CCn1c(C)c(C(C)=O)c(N2CCCCC2)nc1=S,7.31
16,CC1CCCCN1CCCNC(=O)Cn1c(=O)c2cccn2c2ccccc21 (stereo not shown),-1.36
17,CCOc1ccc(NC(=O)CCCN2C(=S)NC(C)(C)CC2C)cc1 (stereo not shown),-1.74
18,O=C1c2ccccc2C2(c3ccccc3)N1CCN2C(=O)C(Cl)(Cl)Cl (stereo not shown),12.4
19,O=C(NC1CCCc2ccccc21)c1ccccc1 (stereo not shown),3.92
20,O=C(Cn1c(-c2ccccn2)nc2ccccc21)N/N=C/c1cccnc1,-20
21,CN1CCN(S(=O)(=O)c2ccc(-c3ccc(Cl)cc3)cc2)CC1,-1.17
22,N#CC1=C(N)Oc2c(c(=O)oc3ccccc23)C1c1ccccc1OC(=O)c1cccs1 (stereo not shown),17.2
23,C=CCn1c(NC)cc(=O)n(C)c1=O,7.94
24,O=C(Cn1c(=O)[nH]c2ccccc2c1=O)N1CCN(c2cccc(Cl)c2)CC1,15.7
25,CCCn1c(O)c(N=Nc2ccc3ccccc3n2)c2ccccc21,15.5
26,O=C1C(=O)N(c2nccs2)C(c2ccccc2F)/C1=C(\O)c1ccc2c(c1)OCCO2 (stereo not shown),17.6
27,COc1[nH]c2ccc(F)cc2c1C(=O)OCC1CCN(CCNS(C)(=O)=O)CC1.NS(=O)(=O)O,-1.62
